Among the data in a collection of fitness landscapes (doi:10.1126/science.1257360) are enrichment ratio values, retold here.

To fix the notation:
B1: PhoQ; a variant is named by its letters at X, in order, P23837 (parent)
chain: MKKLLRLFFPLSLRVRFLLATAAVVLVLSLAYGMVALIGYSVSFDKTTFRLLRGESNLFYTLAKWENNKLHVELPENIDKQSPTMTLIYDENGQLLWAQRDVPWLMKMIQPDWLKSNGFHEIEADVNDTSLLLSGDHSIQQQLQEVREDDDDAEMTHSVAVNVYPATSRMPKLTIVVVDTIPVELKSSYMVWSWFIYVLSANLLLVIPLLWVAAWWSLRPIEALAKEVRELEEHNRELLNPATTRELTSLVRNLNRLLKSERERYDKYRTTLTDLTHSLKTPLXXLQXXLRSLRSEKMSVSDAEPVMLEQISRISQQIGYYLHRASMRGGTLLSRELHPVAPLLDNLTSALNKVYQRKGVNISLDISPEISFVGEQNDFVEVMGNVLDNACKYCLEFVEISARQTDEHLYIVVEDDGPGIPLSKREVIFDRGQRVDTLRPGQGVGLAVAREITEQYEGKIVAGESMLGGARMEVIFGRQHSAPKDE

Some of the results follow.

The variants in this experiment derive from B1. Kind of experiment: enrichment ratio after two sorts for PhoP signalling (ratio (wild type AVST 3.29)); higher = more functional. To be noted: with PhoP (E. coli).
Regarding GRGC, the enrichment ratio is not above 0.25. Then RQIL, with not above 0.25. For the variant VKHT, the enrichment ratio is not above 0.25. As for RLRT, the enrichment ratio was not above 0.25. For GYQR, the enrichment ratio was not above 0.25.

For YAYY, the enrichment ratio was not above 0.25. Take VFNE: the enrichment ratio was not above 0.25. On to NCYD, for which the enrichment ratio is not above 0.25. With DDPQ, the enrichment ratio was not above 0.25.

Consider NDNC, for which the enrichment ratio is not above 0.25. Consider RHTT, for which the enrichment ratio is not above 0.25.

Consider SHYN, for which the enrichment ratio was not above 0.25.

Turning to SHPW, the enrichment ratio is not above 0.25. For EKFF, the enrichment ratio was not above 0.25. Then RCNA, with not above 0.25; and VHYF, with not above 0.25; and DDFG, with not above 0.25. Take VPHN: the enrichment ratio is not above 0.25. In the case of YLPL, the enrichment ratio was not above 0.25. Then MNRN, with not above 0.25; and EHTE, with not above 0.25. Under HEVT stands not above 0.25; under VRHR, not above 0.25; under PIDR, not above 0.25. Turning to VGKW, the enrichment ratio is not above 0.25. Consider HWIY, for which the enrichment ratio was not above 0.25.

For NTVW, the enrichment ratio was not above 0.25. For the variant MANA, the enrichment ratio was not above 0.25.

In the case of RQIT, the enrichment ratio is not above 0.25. For the variant TMHK, the enrichment ratio was not above 0.25.

For the variant NSYM, the enrichment ratio was not above 0.25.

For the variant TNRP, the enrichment ratio is not above 0.25. For the variant IHIC, the enrichment ratio was not above 0.25. YQPG: the enrichment ratio is not above 0.25. Regarding VANN, the enrichment ratio is not above 0.25. Then GVLT, with not above 0.25. As for DVEY, the enrichment ratio is not above 0.25. Turning to VKWR, the enrichment ratio was not above 0.25. Consider LLPC, for which the enrichment ratio is not above 0.25. For RVGL, the enrichment ratio was not above 0.25. For PGPS, the enrichment ratio is not above 0.25. Consider WMVF, for which the enrichment ratio was not above 0.25. Under VVLN stands not above 0.25. Regarding FVCV, the enrichment ratio was not above 0.25.

As to NIIP, the enrichment ratio is not above 0.25. FNGE: the enrichment ratio is not above 0.25. Regarding DWIM, the enrichment ratio is not above 0.25.

RTNT: the enrichment ratio was not above 0.25. As to KDYH, the enrichment ratio was not above 0.25.

Turning to INTQ, the enrichment ratio is not above 0.25. Consider DALS, for which the enrichment ratio is not above 0.25. Take TVYA: the enrichment ratio is not above 0.25.

On to NWVR, for which the enrichment ratio is not above 0.25. Regarding SIPV, the enrichment ratio stood at 7.67.

For the variant IRPV, the enrichment ratio is not above 0.25. In the case of FCWQ, the enrichment ratio was not above 0.25. FGKD: the enrichment ratio is not above 0.25. Consider WPVL, for which the enrichment ratio was not above 0.25. Under MSQA stands not above 0.25. Turning to YPLF, the enrichment ratio was not above 0.25. Turning to SQFH, the enrichment ratio was not above 0.25.

As for FDNS, the enrichment ratio is not above 0.25. As for KIIG, the enrichment ratio was not above 0.25.

In the case of TENS, the enrichment ratio worked out at 8.17. Under HQTT stands not above 0.25. With ITCV, the enrichment ratio was not above 0.25. Then IMRE, with not above 0.25; and LYND, with not above 0.25; and QHNR, with not above 0.25. Under YLTE stands not above 0.25; under WQGP, not above 0.25; under LTAR, not above 0.25. Then KCFF, with not above 0.25. With RLID, the enrichment ratio is not above 0.25.

For SEEG, the enrichment ratio turned out to be 2.48. Take KEQD: the enrichment ratio is not above 0.25. Take KGFW: the enrichment ratio was not above 0.25. For QCWN, the enrichment ratio is 8.13.

Consider ELQC, for which the enrichment ratio is not above 0.25. Turning to TCAA, the enrichment ratio was 3.57. On to SRCE, for which the enrichment ratio is not above 0.25.

For CSNI, the enrichment ratio is not above 0.25. Take SMSL: the enrichment ratio is 5.83.

As to GFKP, the enrichment ratio was not above 0.25. Consider FWYL, for which the enrichment ratio was not above 0.25. Then HNYP, with not above 0.25; and KCRR, with not above 0.25. As to FTVD, the enrichment ratio was not above 0.25. For HSIN, the enrichment ratio was not above 0.25.

On to INRC, for which the enrichment ratio was not above 0.25.

In the case of AYVH, the enrichment ratio was not above 0.25. Under KKLM stands not above 0.25; under NTFT, not above 0.25. Then HYPI, with not above 0.25. RYSM: the enrichment ratio was not above 0.25. For the variant TKKY, the enrichment ratio was not above 0.25. In the case of MYDS, the enrichment ratio was not above 0.25. As to EYQL, the enrichment ratio was not above 0.25. Regarding KQLR, the enrichment ratio is 0.67.

With PYHK, the enrichment ratio is not above 0.25. Under ECVF stands not above 0.25; under YDSF, not above 0.25. Then WVTL, with not above 0.25; and SDRN, with not above 0.25. Under NFHA stands not above 0.25. Take YFHC: the enrichment ratio was not above 0.25. Consider HSCY, for which the enrichment ratio is not above 0.25. With RRHW, the enrichment ratio is not above 0.25.

Regarding MPDV, the enrichment ratio was not above 0.25.

Consider HPRC, for which the enrichment ratio was not above 0.25.

As to PSMH, the enrichment ratio is not above 0.25. Under SSSE stands 9.78. As for GIYL, the enrichment ratio was 1.11.

Turning to QCDP, the enrichment ratio is not above 0.25. Turning to RWQR, the enrichment ratio was not above 0.25. Then VSGM, with not above 0.25.

RILY: the enrichment ratio was not above 0.25.

For the variant MTMP, the enrichment ratio was not above 0.25. In the case of IDAS, the enrichment ratio is not above 0.25. Under MHNL stands not above 0.25; under TYWN, not above 0.25; under FNMK, not above 0.25. Then MMQT, with not above 0.25. For the variant TLDM, the enrichment ratio was not above 0.25.

For IDPH, the enrichment ratio is not above 0.25.

As for NAKR, the enrichment ratio was not above 0.25. With DVPW, the enrichment ratio is not above 0.25. Under DGFT stands not above 0.25; under YNES, not above 0.25. Consider KVGH, for which the enrichment ratio is not above 0.25. As for IMIQ, the enrichment ratio is not above 0.25. As for HEAL, the enrichment ratio was not above 0.25. Regarding MGRN, the enrichment ratio was not above 0.25. In the case of EDHF, the enrichment ratio is not above 0.25. With MIYH, the enrichment ratio stood at 7.94.

For the variant TYRW, the enrichment ratio was not above 0.25. Take SERE: the enrichment ratio is not above 0.25.

PKPP: the enrichment ratio is not above 0.25. Consider HNYT, for which the enrichment ratio was not above 0.25. Turning to TWWI, the enrichment ratio was not above 0.25. Consider SEPW, for which the enrichment ratio was not above 0.25. On to RYTP, for which the enrichment ratio was not above 0.25. As to SRYN, the enrichment ratio is not above 0.25.

YRFC: the enrichment ratio was not above 0.25. On to DSNC, for which the enrichment ratio was not above 0.25. Take PHDD: the enrichment ratio was not above 0.25. Under ALLH stands 4.8; under GEMA, not above 0.25; under AVTY, 5.84. Take CIRF: the enrichment ratio is not above 0.25.

Turning to HWGG, the enrichment ratio is not above 0.25. Under MVSI stands not above 0.25; under WQKL, not above 0.25.
